In all, about 350,000 compounds went through this assay and about 31,000 (8.9%) were called active. Inconclusive means that the source gave no clear call. Such entries were picked first, then a sample of the others. The call rests on the fitted dose curve; in most records, active means well fitted inhibition curve with a large enough effect; inconclusive means small, poorly fitted or top-dose-only effect; inactive means no such curve, though single readings can be large or run the other way. Potencies of inconclusive entries are doubtful fits and often do not repeat.
target: Histone-lysine N-methyltransferase EHMT2 (Homo sapiens) (UniProt Q96KQ7); experiment: qHTS Assay for Inhibitors of Histone Lysine Methyltransferase G9a; settings: G9a H3K9 monomethylation, AlphaScreen, 2 h; activity, negative = inhibition: at 59 µM (top of the series) unless noted; further: nearly all actives have a fitted effect of over 75% in size
Procedure, shortened: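 G9a (20 nM) was preincubated 15 min with compound, then reacted 2 h at room temperature with 500 nM biotin-H3K9 peptide and 20 µM SAM. Monomethyl-H3K9 detected by AlphaScreen using anti-H3K9me1 antibody.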
On the % scale 0 is the no-effect control and ±100 the full control effect; potency means the concentration at half of the fitted maximal effect; tags describe the fitted curve by direction and shape.

UniProt Q96KQ7, sequence (Q96KQ7 whole entry, looked up): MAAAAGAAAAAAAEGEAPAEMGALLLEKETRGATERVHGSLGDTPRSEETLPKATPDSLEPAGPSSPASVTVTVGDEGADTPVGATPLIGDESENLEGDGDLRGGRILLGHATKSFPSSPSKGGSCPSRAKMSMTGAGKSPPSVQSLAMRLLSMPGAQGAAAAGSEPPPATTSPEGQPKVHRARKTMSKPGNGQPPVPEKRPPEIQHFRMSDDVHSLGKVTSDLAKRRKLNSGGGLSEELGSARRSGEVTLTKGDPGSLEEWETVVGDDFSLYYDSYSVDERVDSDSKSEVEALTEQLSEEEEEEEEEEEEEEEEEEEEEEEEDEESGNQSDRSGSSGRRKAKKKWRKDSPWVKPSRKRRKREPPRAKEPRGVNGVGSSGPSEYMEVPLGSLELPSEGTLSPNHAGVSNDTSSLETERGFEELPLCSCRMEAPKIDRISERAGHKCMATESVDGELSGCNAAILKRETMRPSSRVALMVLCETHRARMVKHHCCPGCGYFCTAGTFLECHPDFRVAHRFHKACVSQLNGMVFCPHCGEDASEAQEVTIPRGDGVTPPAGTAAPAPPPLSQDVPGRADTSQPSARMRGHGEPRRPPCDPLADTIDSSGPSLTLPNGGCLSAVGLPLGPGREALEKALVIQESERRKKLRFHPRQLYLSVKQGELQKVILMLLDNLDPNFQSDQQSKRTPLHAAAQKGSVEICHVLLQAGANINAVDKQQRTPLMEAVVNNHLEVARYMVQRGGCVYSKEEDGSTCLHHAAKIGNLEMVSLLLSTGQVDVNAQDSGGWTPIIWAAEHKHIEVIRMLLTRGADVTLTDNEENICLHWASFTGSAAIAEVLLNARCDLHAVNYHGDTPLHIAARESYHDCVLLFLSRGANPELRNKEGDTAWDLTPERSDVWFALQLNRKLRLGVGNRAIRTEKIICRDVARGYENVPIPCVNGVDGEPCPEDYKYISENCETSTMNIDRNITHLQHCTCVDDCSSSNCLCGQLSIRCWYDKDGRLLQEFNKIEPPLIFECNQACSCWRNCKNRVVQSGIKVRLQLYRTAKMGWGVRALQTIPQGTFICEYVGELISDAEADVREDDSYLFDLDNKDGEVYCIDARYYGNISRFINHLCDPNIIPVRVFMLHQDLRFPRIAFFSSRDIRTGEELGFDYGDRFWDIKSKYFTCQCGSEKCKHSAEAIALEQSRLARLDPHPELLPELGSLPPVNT

Question: Which Potency does the source give for O=C(CCSc1ccc(Cl)cc1)N1CCN(c2ccc(O)cc2)CC1 here?
Answer: The Potency was active: 31.6 µM.

Question: Which Potency does the source give for Cc1ccc(-n2c(C)cc(/C=N/NC(=O)c3ccncc3)c2C)cc1C here?
Answer: Its Potency is active: 50.1 µM.

Question: For CC(C)c1ccc(C(=O)CSc2ncn[nH]2)cc1, which Potency is on record?
Answer: The Potency was active: 31.6 µM.

Question: For CC(C)n1c(=S)[nH]c2ccccc21, which Potency is on record?
Answer: The Potency was inconclusive: 2.82 µM [inhibitor, partial curve, poor fit].

Question: How did the Potency turn out when CC(C)NCC(O)COCCOc1ccc(Cl)cc1 (stereo unspecified) was run?
Answer: Its Potency is “inactive”.

Question: Nc1cc(N2CCCC2)c(Cl)cc1[N+](=O)[O-] was tested. Which Potency did it give?
Answer: Its Potency is inconclusive: 79.4 µM [inhibitor, single point].

Question: How did the activity, negative = inhibition turn out when CCOC(=O)CSC1=C(C#N)C(c2ccccc2)C(C(C)=O)=C(C)N1 (stereo unspecified) was run?
Answer: Its activity, negative = inhibition is inactive: -2.98% [at 0.501 µM].

Question: How did the Potency turn out when O=C(NCc1ccco1)c1cc(-c2ccccn2)nc2ccccc12 was run?
Answer: Its Potency is active: 79.4 µM.

Question: For O=C(NCCc1ccccc1)C1CCCN(c2nc3ccccc3s2)C1 (stereo unspecified), which Potency is on record?
Answer: Its Potency is “inactive”.

Question: With COc1ccc(-c2nc(-c3ccccn3)nc(N3CCN(C)CC3)c2C#N)cc1 as the compound, how does the Potency read?
Answer: Its Potency is inconclusive: 79.4 µM [inhibitor, single point].

Question: For COc1ccc(-c2nc(CS(=O)CC(=O)NCc3ccc(Cl)cc3)c(C)o2)cc1OC (stereo unspecified), which Potency is on record?
Answer: Its Potency is inconclusive: 89.1 µM [inhibitor, single point].

Question: Which Potency does the source give for Cc1ccc(CONC(=O)c2ccc(Cl)cc2)cc1 here?
Answer: Its Potency is inconclusive: 8.91 µM [inhibitor, single point].

Question: With Cc1ccc(C)c(Cn2c(CN(C)Cc3ccccc3)nc3c2c(=O)n(C)c(=O)n3C)c1 as the compound, how does the Potency read?
Answer: Its Potency is inconclusive: 89.1 µM [inhibitor, single point].

Question: For CCC(c1nnnn1Cc1ccco1)N(CCc1ccccc1)Cc1cc2ccc(OC)cc2[nH]c1=O (stereo unspecified), which Potency is on record?
Answer: The Potency was inconclusive: 44.7 µM [inhibitor, partial curve].

Question: Which Potency does the source give for CCN(CC)C(=O)c1cc(Cl)ccn1 here?
Answer: The Potency was active: 11.2 µM.

Question: How did the Potency turn out when c1ccc(-n2ncc3c(NC4CCCCCC4)ncnc32)cc1 was run?
Answer: The Potency was “inactive”.

Question: Which Potency does the source give for COc1ccccc1N1CCN(C(=O)Cc2c(C(=O)O)c(C)cn2C)CC1 here?
Answer: The Potency was “inactive”.

Question: With Cc1ccc(S(=O)(=O)Nc2cc(S(=O)(=O)N3CCCCC3)ccc2N2CCOCC2)cc1 as the compound, how does the Potency read?
Answer: Its Potency is inconclusive: 44.7 µM [inhibitor, partial curve, poor fit].

Question: For COc1ccc(-c2cc(C(=O)NCc3ccccc3)c3c(-c4ccccc4)[nH]nc3n2)cc1, which Potency is on record?
Answer: The Potency was “inactive”.

Question: For Cc1ccc(C)c(CN2CCNC2=O)c1, which Potency is on record?
Answer: The Potency was inconclusive: 50.1 µM [inhibitor, partial curve, poor fit].

Question: With Cc1cc2oc(=O)c(CC(=O)O)c(C)c2c2occ(C(C)(C)C)c12 as the compound, how does the Potency read?
Answer: The Potency was inconclusive: 89.1 µM [inhibitor, partial curve, poor fit].

Question: COc1ccc(-c2nc3ccccc3c(=O)o2)cc1OC was tested. Which Potency did it give?
Answer: The Potency was inconclusive: 44.7 µM [inhibitor, full curve, poor fit].

Question: For CCc1ccc(NC(=O)CCc2nc3sc4c(c3c(=O)[nH]2)CCCC4)cc1, which Potency is on record?
Answer: The Potency was “inactive”.

Question: How did the Potency turn out when CCNc1nc(NCC)n2c(SCC(=O)Nc3ccccc3[N+](=O)[O-])nnc2n1 was run?
Answer: Its Potency is “inactive”.

Question: With O=C(Nc1cccc(S(=O)(=O)N2CCCCC2)c1)C1=NN(c2ccccc2)C(=O)CC1 as the compound, how does the Potency read?
Answer: The Potency was inconclusive: 35.5 µM [inhibitor, single point].

Question: For CCCC1NC(=S)NC(C)=C1C(C)=O (stereo unspecified), which Potency is on record?
Answer: The Potency was inconclusive: 31.6 µM [inhibitor, single point].

Question: Nc1ccc2nn(-c3ccc(Cl)cc3)nc2c1 was tested. Which Potency did it give?
Answer: The Potency was inconclusive: 3.55 µM [inhibitor, single point].

Question: How did the Potency turn out when COc1ccc(N2CC(C(=O)Nc3nnc(SCc4ccccn4)s3)CC2=O)cc1 (stereo unspecified) was run?
Answer: The Potency was active: 50.1 µM.

Question: Which Potency does the source give for O=C(O)/C=C/c1cn(-c2ccccc2)nc1-c1cccs1 here?
Answer: Its Potency is “inactive”.

Question: Which Potency does the source give for O=c1c2c([nH]c3ccccc13)C(=C1CCCC1)CC2 here?
Answer: Its Potency is active: 35.5 µM.

Question: For Cc1ccc(CNC(=O)c2nnn(CC(=O)Nc3cc(C)cc(C)c3)c2N)cc1, which Potency is on record?
Answer: Its Potency is “inactive”.

Question: CC(=O)Nc1cc(C(=O)N2CCN(C)CC2)ccc1Sc1ccc(C)cc1 was tested. Which Potency did it give?
Answer: The Potency was inconclusive: 89.1 µM [inhibitor, single point].

Question: With O=C(CSc1ccccn1)N1CCN(c2ccccc2)CC1 as the compound, how does the activity, negative = inhibition read?
Answer: Its activity, negative = inhibition is inconclusive: -117% [inhibitor].

Question: How did the Potency turn out when O=C(/C=C/c1ccco1)Nc1ccccc1C(=O)Nc1cccc(C(=O)O)c1 was run?
Answer: Its Potency is active: 50.1 µM.

Question: Which Potency does the source give for O=C(Nc1ncc(Cc2cccc(C(F)(F)F)c2)s1)c1ccc(-c2cccc([N+](=O)[O-])c2)o1 here?
Answer: The Potency was inconclusive: 70.8 µM [inhibitor, partial curve, poor fit].

Question: O=C(COc1ccc(Br)cc1)NCCNC(=O)c1ccccn1 was tested. Which Potency did it give?
Answer: Its Potency is “inactive”.

Question: For COc1cccc(-n2c(=O)c3sc4ccccc4c3n(CC(=O)Nc3cccc(Cl)c3)c2=O)c1, which Potency is on record?
Answer: Its Potency is inconclusive: 7.94 µM [inhibitor, partial curve].

Question: For O=C(/C=C/c1cc(Br)ccc1F)OCC(=O)N1CCCC1, which Potency is on record?
Answer: The Potency was inconclusive: 10 µM [inhibitor, partial curve, poor fit].

Question: Which Potency does the source give for COc1cc(CC(=O)NCCc2ccc(S(N)(=O)=O)cc2)cc(OC)c1OC here?
Answer: The Potency was inconclusive: 39.8 µM [inhibitor, single point].

Question: Which Potency does the source give for C#CCOCCOCCOCCNc1nc(N2CCN(C(=O)Cn3cc(CCCCN)nn3)CC2)nc(N2CCN(C(=O)[C@H](C(C)C)n3cc(CCO)nn3)CC2)n1 here?
Answer: The Potency was inconclusive: 89.1 µM [inhibitor, single point].

Question: Which Potency does the source give for Cc1[nH]n(-c2ccccc2)c(=O)c1-c1ccc(Cl)cc1 here?
Answer: The Potency was active: 14.1 µM.

Question: CCCCCCCNC(=O)C1(CC2CC(c3ccc(Cl)cc3)=NO2)CCNCC1 (stereo unspecified) was tested. Which Potency did it give?
Answer: The Potency was inconclusive: 79.4 µM [inhibitor, single point].

Question: How did the Potency turn out when CCOc1ccc(CNC(=O)c2cnc3sc(N4CCC(C)CC4)nn3c2=O)cc1OC was run?
Answer: The Potency was “inactive”.

Question: How did the Potency turn out when Cc1c(C(=O)N(C)c2cccc(C(F)(F)F)c2)sc2nc3n(c(=O)c12)CCCCC3 was run?
Answer: Its Potency is active: 14.1 µM.

Question: How did the Potency turn out when Cc1cc2cc(CNC(=O)c3ccc(S(=O)(=O)N(C)C)cc3)ccc2n1C was run?
Answer: Its Potency is inconclusive: 39.8 µM [inhibitor, single point].

Question: How did the Potency turn out when CC(Sc1ccc(Cl)cc1)C(=O)NCc1cccnc1 (stereo unspecified) was run?
Answer: The Potency was inconclusive: 89.1 µM [inhibitor, partial curve, poor fit].

Source: PubChem BioAssay AID504332 (National Center for Advancing Translational Sciences (NCATS), 2011)
